Experimental data as given in patent publication US20070128217A1.

Biological target: SARS-CoV preparation (Frankfurt 1 strain) (SARS-CoV strain Frankfurt 1)

Row | Binder | OD492nm
1 | SC03-007 (scFv) scFv: SMAEVQLVESGGGLVQPRGSLRLSCAASGFTFSDYRMNWVRQAPGKGLERVAVISYDGSNKYYADSVKGRFTISRDNSKNTLYLQMNSLRAEDTAVYYCARGYWTSLTGFDYWGQGTLVTVLEGTGGSGGTGSGTGTSELTQSPSSLSASVGDRVTIT[about 80 residues left out here]FGQGTKVEIKRAAA | 0.876 OD492nm
2 | SC03-009 (scFv) scFv: SMAEVQLVESGGGVVQPGRSLRLSCAASGFTFSDYPMNWVRQAPGKGLEWVSSISGSGGSTYYADSVKGRFTISRDNSKNTLYLQMNSLRAEDTAVYYCAKGLFMVTTYAFDYWGQGTLVTVLEGTGGSGGTGSGTGTSELTQSPSSLSASVGDRVTIT[about 80 residues left out here]FGQGTKVEIKRAAA | 0.76 OD492nm
3 | SC03-010 (scFv) scFv: SMAEVQLVESGGGVVQPGRSLRLSCATSGFTFSGYTMHWVRQAPGKGLEWVSSISGGSTYYADSRKGRFTISRDNSKNTLYLQMNNLRAEDTAVYYCAKGGGLPYLSFDYWGQGTLVTVLEGTGGSGGTGSGTGTSELTQSPSSLSASVGDRVTIT[about 80 residues left out here]FGQGTKVEIKRAAA | 0.327 OD492nm
4 | SC03-014 (scFv) scFv: AMAEVQLVESGGGLVQPGGSLRLSCAASGFTFSDHYMDWVRQAPGKGLEWVGRTRNKANSYTTEYAASVKGRFTISRDDSKNSLYLQMNSLKTEDTAVYYCARGISPFYFDYWGQGTLVTVSSGGGGSGGGGSGGGGSEIELTQSPSSLSASVGDRVTIT[about 80 residues left out here]FGQGTKVEIKRAAA | 0.917 OD492nm
